Laboratory results: PubChem BioAssay AID588855 (National Center for Advancing Translational Sciences (NCATS), 2011)
Among all 410,000 compounds or so, about 5,000 (1.2%) were called active. Inconclusive results, whose numbers are uncertain, are shown with a selection of clear calls. Calls come from the whole dose curve; as a rule, active = well fitted inhibition curve with a large enough effect; inconclusive = small, poorly fitted or top-dose-only effect; inactive = no such curve, though single readings can be large or run the other way. Where the call is inconclusive, the potency comes from a doubtful curve fit.

Experiment: qHTS for Inhibitors of TGF-b; note: nearly all actives have a fitted effect of over 65% in size
Details: HepG2 CAGA-GFP TGF-b/SMAD3 reporter, GFP fluorescence, 18 h, TGF-beta stimulated, 500 pg/mL final; series mostly up to 46.1 µM; activity, negative = inhibition: at the top concentration
Procedure, shortened: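 First, reporter cells (HEPG2 CAGA-GFP) rested 2 h at 37 degrees C. Next, compounds were pinned in and TGF-beta added to 500 pg/mL final. After 18 h, GFP was imaged per cell and summed per well.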
% is set by controls: 0 for no effect and ±100 for the full control effect; potency is the fitted concentration of half-maximal effect; tags give direction and shape of the fitted curve.

Compound | activity, negative = inhibition | Potency
CN(C(=O)COC(=O)c1cc(S(=O)(=O)N2CCCCC2)ccc1Cl)c1ccccc1 | inactive: -22.2% | 
S=c1ncc2n[nH]nc2[nH]1 | inactive: 1.64% | 
CC(C)Oc1ccc(C(=O)Nc2nnc(SCC(=O)N3CCOCC3)s2)cc1 | inactive: 6.77% | 
CC(NCCC1(Cc2ccccc2Cl)CCOC(C)(C)C1)c1cccs1 (stereo not drawn) |  | inconclusive: 35.5 µM [inhibitor, single point]
COc1ccc(C2=Nn3c(nnc3-c3ccccc3OC)SC2)cc1OCC1CC1 |  | inconclusive: 12.6 µM [inhibitor, partial curve, poor fit]
CC(C)(O)P(C)(=O)c1ccccc1 (stereo not drawn) |  | inconclusive: 35.5 µM [inhibitor, single point]
COc1ccc(C=C2SC(=O)NC2=O)cc1OC | inactive: 11.4% | 
COC(=O)c1cc2sc(Cl)cc2n1Cc1cc(C)ccc1C | inactive: -0.246% | 
CCCc1nn2c(=O)cc(COc3ccc(/C=C(\C#N)C(=O)Nc4ccccc4)cc3)nc2s1 | inactive: -21% | 
COc1ccccc1CCNC(=O)CCCn1nc(C)c2c(C)n(-c3ccc(C)cc3)nc2c1=O |  | inconclusive: 0.0891 µM [inhibitor, full curve, poor fit]
CC(C)(C)c1ccc(NC(=O)COC(=O)c2ccc([N+](=O)[O-])s2)cc1 |  | inconclusive: 22.4 µM [inhibitor, single point]
CCCn1c(C(CO)Nc2nc(C)cs2)nc2ccccc21 (stereo not drawn) |  | inconclusive: 0.1 µM [inhibitor, full curve, poor fit]
c1coc(CSc2ncnc3c2oc2ccccc23)c1 | inactive: 39.8% | 
COc1ccc(NS(=O)(=O)c2cccc(C(=O)O)c2)cc1S(=O)(=O)N1CCOCC1 |  | inconclusive: 14.1 µM [inhibitor, single point]
Cc1ccc(C)c(CN2C(=O)c3ccccc3S(=O)c3ccc(C(=O)N4CCN(c5cccc(Cl)c5)CC4)cc32)c1 (stereo not drawn) |  | inconclusive: 2 µM [inhibitor, full curve, poor fit]
Cn1ncc([N+](=O)[O-])c1C(=O)Nc1ccc(-c2nc3ccccc3[nH]2)cc1 | inactive: 26.8% | 
O=C(/C=C/c1cccs1)c1ccc(N2CCOCC2)cc1 | inactive: -25.3% | 
COc1cccc(/C=C2\SC(=O)N(CC(=O)NC3C=CS(=O)(=O)C3)C2=O)c1 (stereo not drawn) | inactive: -8.5% | 
N#C/C(=C(/O)CCl)c1nc2ccccc2[nH]1 |  | active: 10 µM
CCc1ccc(C(O)c2ncc(-c3ccc(C(F)(F)F)cc3)[nH]2)cc1 (stereo not drawn) |  | active: 15.8 µM
CCCN1Cc2cccc(C(=O)NCCc3cccc(C)c3)c2C1=O | inactive: 3.27% | 
c1ccc(Nc2nc(-c3cccs3)cs2)nc1 |  | inconclusive: 35.5 µM [inhibitor, single point]
CCN1CCN(CCCNC(=O)c2ccc3c(Cl)c4c(nc3c2)CCCC4)CC1 |  | inconclusive: 12.6 µM [inhibitor, partial curve]
COc1ccc(/C=N/NC(=O)c2nn(-c3ccccc3)c(=O)c3c(N)scc23)cc1 | inactive: -13.8% | 

Compound | activity, negative = inhibition | Potency
Cc1nc2ccccn2c1C(=O)NC1CCCCC1 |  | inconclusive: 6.31 µM [inhibitor, single point]
O=C(COc1ccccc1)NCc1nnc2c3ccccc3c(-c3ccccc3)nn12 |  | inconclusive: 22.4 µM [inhibitor, single point]
Cc1ccc(C(=O)NCCOc2ccc(Cl)cc2)cc1 | inactive: 0% | 
CC1=CC(C)(C)Nc2ccccc21 |  | inconclusive: 35.5 µM [inhibitor, single point]
CCS(=O)(=O)N1CCC(N2CCN(c3ccccc3)CC2)CC1 |  | inconclusive: 35.5 µM [inhibitor, single point]
O=C(CN1CCN(Cc2ccc(F)cc2Cl)CC1)NCc1ccccc1 | inactive: -28.2% | 
COc1ccc(C(C)=O)cc1COc1cccc2cccnc12 | inactive: -5.88% | 
COc1ccc2c(c1)-c1c(ssc1=S)C(C)(C)N2C(=O)CSC1=NCCS1 | inactive: -4.49% | 
O=S(=O)(c1ccc(-n2cnnn2)cc1)N1CCN(c2cccc(Cl)c2)CC1 | inactive: -9.06% | 
CCNC(=S)/N=C(/Nc1ccc(OC)cc1)Nc1nc(C)cc(C)n1 | inactive: -4.11% | 
CCCN(CC(=O)Nc1ccccc1C)C(=O)c1cccc(S(=O)(=O)N2CCN(c3ccccc3)CC2)c1 | inactive: -16.4% | 
O=C(O)c1ccc(Cn2cnc3c(=O)[nH]cnc32)cc1 |  | inconclusive: 0.631 µM [inhibitor, partial curve, poor fit]
Cc1cc(NC(=O)c2cc([N+](=O)[O-])ccc2Cl)no1 | inactive: -23% | 
N#Cc1ccc(C(=O)N2CCC3CC2c2cc(-c4ccc(F)cc4)ccc23)cc1 (stereo not drawn) |  | inconclusive: 12.6 µM [inhibitor, single point]
Cc1cc(C)nc(NC(N)=NCCc2c[nH]c3ccccc23)n1 |  | inconclusive: 25.1 µM [inhibitor, single point]
CN1Cc2cccc3c2C(Cc2ccccc2S3)C1 (stereo not drawn) |  | inconclusive: 35.5 µM [inhibitor, single point]
CCCCN(CC)CCNC(=O)C1CCCN(S(=O)(=O)c2cccc3nsnc23)C1 (stereo not drawn) |  | inconclusive: 25.1 µM [inhibitor, single point]
C#CCN(C[C@@H]1[C@@H](OC(=O)NC2CCCC2)[C@@H](OC(=O)NC2CCCC2)Cn2c(=O)ccc(=O)n21)S(=O)(=O)c1ccc(C)cc1 |  | inconclusive: 22.4 µM [inhibitor, single point]
Cn1c(=O)c2c(-c3ccccc3)n(-n3cnnc3)cc2n(C)c1=O |  | inconclusive: 3.55 µM [inhibitor, single point]
CCOC(=O)N1CCN(S(=O)(=O)c2ccc(C(=O)NNc3nc4ccc(Cl)cc4s3)cc2)CC1 |  | inconclusive: 7.94 µM [inhibitor, partial curve, poor fit]
O=C(N/N=C/c1cccnc1)c1ccc(CN2c3cccc4cccc(c34)S2(=O)=O)cc1 |  | inconclusive: 35.5 µM [inhibitor, single point]
CCOc1ccccc1NC(=O)C(CC)n1c(C(=O)OC)cc2occc21 (stereo not drawn) |  | inconclusive: 15.8 µM [inhibitor, single point]
COc1ccc(CNC(=S)NCc2ccc(OC)cc2)cc1 | inactive: -11.8% | 
CCC(=O)Nc1c(C(=O)N2CCCCCC2)cnn1-c1ccc(C)c(C)c1 |  | inconclusive: 22.4 µM [inhibitor, single point]
